Laboratory results: publication PMC547899
No constants are given. Whether binding was seen depends on the method and setting. For some assays here: In cells and extracts the contact can be indirect. Some entries that bind do so weakly or less than the wild type.

Protein sequences, listed by entry. Tags and fused reporters are not part of them.
UniProt Q9UQE7: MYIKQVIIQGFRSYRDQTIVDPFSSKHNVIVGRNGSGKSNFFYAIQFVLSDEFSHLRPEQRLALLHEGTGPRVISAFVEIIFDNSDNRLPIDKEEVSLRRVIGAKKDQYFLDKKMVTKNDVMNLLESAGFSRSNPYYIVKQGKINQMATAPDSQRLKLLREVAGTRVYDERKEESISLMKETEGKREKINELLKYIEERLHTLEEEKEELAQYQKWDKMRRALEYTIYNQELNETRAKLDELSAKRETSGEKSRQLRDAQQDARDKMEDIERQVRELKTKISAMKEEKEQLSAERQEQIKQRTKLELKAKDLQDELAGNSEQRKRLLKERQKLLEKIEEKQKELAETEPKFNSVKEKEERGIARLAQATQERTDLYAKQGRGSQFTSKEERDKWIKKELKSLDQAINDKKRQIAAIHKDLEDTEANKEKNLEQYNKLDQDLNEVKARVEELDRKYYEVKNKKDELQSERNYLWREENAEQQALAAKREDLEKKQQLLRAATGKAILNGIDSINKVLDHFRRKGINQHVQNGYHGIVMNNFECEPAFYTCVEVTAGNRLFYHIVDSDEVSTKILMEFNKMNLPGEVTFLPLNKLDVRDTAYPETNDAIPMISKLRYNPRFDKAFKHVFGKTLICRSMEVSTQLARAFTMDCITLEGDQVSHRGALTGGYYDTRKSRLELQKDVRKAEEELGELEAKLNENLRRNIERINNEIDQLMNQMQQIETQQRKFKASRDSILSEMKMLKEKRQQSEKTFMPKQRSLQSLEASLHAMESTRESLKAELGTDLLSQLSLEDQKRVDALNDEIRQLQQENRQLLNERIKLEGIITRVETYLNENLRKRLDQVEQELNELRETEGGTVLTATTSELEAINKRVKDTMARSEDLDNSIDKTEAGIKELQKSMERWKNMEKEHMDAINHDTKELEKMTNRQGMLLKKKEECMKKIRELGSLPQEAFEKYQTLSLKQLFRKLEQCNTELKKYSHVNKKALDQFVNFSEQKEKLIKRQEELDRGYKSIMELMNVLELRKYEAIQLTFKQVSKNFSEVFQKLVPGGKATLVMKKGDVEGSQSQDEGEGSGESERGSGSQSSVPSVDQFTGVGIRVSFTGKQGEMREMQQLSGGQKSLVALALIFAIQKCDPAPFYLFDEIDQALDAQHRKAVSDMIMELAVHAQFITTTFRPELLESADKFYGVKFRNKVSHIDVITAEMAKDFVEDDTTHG

Experiments:
[1] = target: T1, SMC1 (endogenous, 293 cells) (human (endogenous in 293)) (UniProt Q14683); assay: co-IP; 293 cells transfected with Hinderin-V5, lysate in 50 mM Tris-HCl pH 7.5, 150 mM NaCl, 1% Nonidet P40, 0.5% Na-deoxycholate; precipitated with anti-SMC3, anti-SMC1 or anti-V5 antibody on protein G-agarose, washed with 300 mM NaCl, immunoblotted
T1 sequence: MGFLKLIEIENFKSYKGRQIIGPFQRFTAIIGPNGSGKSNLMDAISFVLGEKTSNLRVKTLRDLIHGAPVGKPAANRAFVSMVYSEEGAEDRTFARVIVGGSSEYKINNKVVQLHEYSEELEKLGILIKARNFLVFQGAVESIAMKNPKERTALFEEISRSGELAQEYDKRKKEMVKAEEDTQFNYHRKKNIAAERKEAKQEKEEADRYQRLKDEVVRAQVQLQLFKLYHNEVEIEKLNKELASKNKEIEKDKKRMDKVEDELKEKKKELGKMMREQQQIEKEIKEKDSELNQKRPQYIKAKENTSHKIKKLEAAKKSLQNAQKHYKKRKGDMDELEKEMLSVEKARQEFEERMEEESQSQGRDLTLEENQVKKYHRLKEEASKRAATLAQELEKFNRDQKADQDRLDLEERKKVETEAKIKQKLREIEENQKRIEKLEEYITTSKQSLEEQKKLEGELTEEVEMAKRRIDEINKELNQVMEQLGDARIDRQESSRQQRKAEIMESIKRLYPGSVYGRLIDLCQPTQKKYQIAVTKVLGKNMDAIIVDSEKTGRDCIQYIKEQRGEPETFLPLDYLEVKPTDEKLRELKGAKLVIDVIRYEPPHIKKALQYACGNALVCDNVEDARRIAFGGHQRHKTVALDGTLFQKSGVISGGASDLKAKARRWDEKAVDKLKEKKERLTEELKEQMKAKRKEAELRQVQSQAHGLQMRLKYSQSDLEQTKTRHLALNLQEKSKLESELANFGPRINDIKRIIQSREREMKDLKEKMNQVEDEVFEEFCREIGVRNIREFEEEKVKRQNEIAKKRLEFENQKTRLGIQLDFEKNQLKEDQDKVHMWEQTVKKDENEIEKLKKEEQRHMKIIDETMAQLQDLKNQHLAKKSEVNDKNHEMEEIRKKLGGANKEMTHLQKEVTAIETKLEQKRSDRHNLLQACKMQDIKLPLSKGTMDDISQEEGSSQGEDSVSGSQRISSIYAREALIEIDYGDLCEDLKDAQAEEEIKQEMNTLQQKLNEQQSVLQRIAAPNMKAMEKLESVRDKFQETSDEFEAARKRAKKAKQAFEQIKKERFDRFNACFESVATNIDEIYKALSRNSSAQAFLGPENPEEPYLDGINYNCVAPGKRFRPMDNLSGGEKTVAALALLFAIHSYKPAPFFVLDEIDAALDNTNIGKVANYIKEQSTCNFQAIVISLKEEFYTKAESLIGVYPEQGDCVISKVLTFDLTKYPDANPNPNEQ

[2] = target: SMC3 (endogenous, 293 cells) (human (endogenous in 293)) (UniProt Q9UQE7); assay: as above
[3] = target: Hinderin-V5 (complete Hinderin coding region with V5 tag) (human) (UniProt Q86T90); assay: as above
[4] = target: T2, Hinderin H-47/578 (clone retrieved from the two-hybrid library) (human) (UniProt Q86T90); assay: two-hybrid; yeast two-hybrid, AH109 cotransformed with defined bait (pGBKT7) and prey (pACT2 or pGADT7) constructs; scored by the rate of appearance of blue colonies and the colour; null score when no blue colonies after ten days
T2 sequence: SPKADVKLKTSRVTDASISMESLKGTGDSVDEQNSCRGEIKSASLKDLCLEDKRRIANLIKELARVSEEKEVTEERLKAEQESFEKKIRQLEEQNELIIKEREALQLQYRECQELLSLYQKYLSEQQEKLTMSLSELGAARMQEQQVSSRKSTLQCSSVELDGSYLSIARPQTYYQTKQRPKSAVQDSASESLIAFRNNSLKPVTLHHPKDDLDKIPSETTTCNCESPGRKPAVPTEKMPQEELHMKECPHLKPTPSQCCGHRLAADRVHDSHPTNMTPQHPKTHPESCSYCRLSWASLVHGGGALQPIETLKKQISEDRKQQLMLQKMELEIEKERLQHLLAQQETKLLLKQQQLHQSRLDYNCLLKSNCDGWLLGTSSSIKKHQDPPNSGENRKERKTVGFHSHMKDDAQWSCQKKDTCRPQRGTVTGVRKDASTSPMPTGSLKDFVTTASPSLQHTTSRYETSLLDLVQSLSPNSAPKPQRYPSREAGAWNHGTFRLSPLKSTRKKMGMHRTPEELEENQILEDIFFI

Molecule: Hinderin-V5 (complete Hinderin coding region with V5 tag) (from UniProt Q86T90 1-577)
- binding [1]: no binding
- binding [2]: binds

Molecule: SMC3 (endogenous, 293 cells) (from UniProt Q9UQE7 1-1217)
- binding [3]: binds

B1: SMC1 (endogenous, 293 cells) (protein, UniProt Q14683 1-1233)
chain: T1 sequence
- binding [3]: no binding

B2: SMC1-485/670 (entire SMC1 hinge region) (domain or fragment, UniProt Q14683 485-670)
chain: GDARIDRQESSRQQRKAEIMESIKRLYPGSVYGRLIDLCQPTQKKYQIAVTKVLGKNMDAIIVDSEKTGRDCIQYIKEQRGEPETFLPLDYLEVKPTDEKLRELKGAKLVIDVIRYEPPHIKKALQYACGNALVCDNVEDARRIAFGGHQRHKTVALDGTLFQKSGVISGGASDLKAKARRWDEKA
- binding [4]: no binding
